Screen size: about 310,000 compounds; about 2,200 (0.71%) showed an effect of 50% or more. Effects have a minus sign here. The list shows a part of the results.

The results in this text go back to article PMC4336329 (PLoS ONE, 2015).

The experiment deals with human ether-à-go-go-related gene (hERG) potassium channel (human, UniProt Q12809). As to the kind of experiment: primary screen, population patch clamp on CHO cells stably expressing hERG.
Sequence of human ether-à-go-go-related gene (hERG) potassium channel (Q12809 whole entry, looked up): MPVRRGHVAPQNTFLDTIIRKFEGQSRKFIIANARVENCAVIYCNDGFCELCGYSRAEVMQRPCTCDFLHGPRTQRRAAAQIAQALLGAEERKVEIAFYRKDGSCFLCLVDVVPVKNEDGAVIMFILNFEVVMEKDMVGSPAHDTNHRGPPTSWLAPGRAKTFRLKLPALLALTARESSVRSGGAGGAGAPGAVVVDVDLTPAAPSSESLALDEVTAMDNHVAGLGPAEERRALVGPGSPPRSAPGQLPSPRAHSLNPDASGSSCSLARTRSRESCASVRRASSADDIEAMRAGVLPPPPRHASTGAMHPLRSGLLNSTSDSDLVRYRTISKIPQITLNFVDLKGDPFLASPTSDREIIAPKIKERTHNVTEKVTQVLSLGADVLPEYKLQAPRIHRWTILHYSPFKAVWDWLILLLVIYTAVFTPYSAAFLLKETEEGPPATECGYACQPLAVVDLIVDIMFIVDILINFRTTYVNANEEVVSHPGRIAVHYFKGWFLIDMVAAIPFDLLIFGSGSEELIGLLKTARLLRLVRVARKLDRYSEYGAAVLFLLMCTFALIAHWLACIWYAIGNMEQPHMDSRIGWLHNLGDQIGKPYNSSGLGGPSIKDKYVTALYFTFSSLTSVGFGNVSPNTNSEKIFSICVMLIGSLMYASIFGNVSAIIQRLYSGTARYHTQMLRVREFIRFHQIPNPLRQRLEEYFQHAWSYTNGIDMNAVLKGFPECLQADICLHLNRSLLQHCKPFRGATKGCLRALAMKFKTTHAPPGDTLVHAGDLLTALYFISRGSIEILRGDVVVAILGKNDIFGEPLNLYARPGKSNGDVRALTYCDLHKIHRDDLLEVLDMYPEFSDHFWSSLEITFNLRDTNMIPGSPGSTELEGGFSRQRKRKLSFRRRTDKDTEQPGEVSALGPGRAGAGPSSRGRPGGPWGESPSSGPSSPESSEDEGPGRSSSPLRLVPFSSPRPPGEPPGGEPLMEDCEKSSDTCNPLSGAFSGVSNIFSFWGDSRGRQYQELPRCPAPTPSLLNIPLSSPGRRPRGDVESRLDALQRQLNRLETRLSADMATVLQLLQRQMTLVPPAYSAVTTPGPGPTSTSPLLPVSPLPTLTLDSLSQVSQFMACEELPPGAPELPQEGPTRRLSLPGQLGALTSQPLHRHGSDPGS
As for `Cc1nn(-c2ccccc2)c(C)c1NC(=O)COC(=O)c1ccc(S(=O)(=O)C(F)F)cc1`, the “hERG current change (%, negative = inhibition) at 1uM” value was -0.894%.
The value for `c1ccc(OCCOCCN2CCOCC2)cc1` was 7.17%.
The value for `Cc1ccc(NS(=O)(=O)c2ccc(-n3cccn3)cc2)nc1` was 17.2%; that for `Cn1c(OCc2cccnc2)nc2c1c(=O)n(Cc1ccccc1)c(=O)n2C` was -14.4%.
The value for `CSc1ccc(-c2c(C#N)c(N)nc3c2CCCC3)cc1` was -9.73%; that for `C/C=C/c1ccc(OCCCCN(C)Cc2ccccc2)c(OC)c1.O=C(O)C(=O)O` was 6.83%.
Turning to `COc1cccc(CN2C(=O)C3(C(C#N)=C(N)OC4=C3C(=O)CCC4)c3ccccc32)c1` (centres unmarked), the “hERG current change (%, negative = inhibition) at 1uM” value was determined as 7.85%.
Take `Cc1cccc(/C=C2\Oc3cc(OS(C)(=O)=O)ccc3C2=O)c1`: the “hERG current change (%, negative = inhibition) at 1uM” value is 8.42%.
The result for `CCCNC(=O)N1CCC(c2ccc3c(c2)OCO3)CC1` reads 7.16%; that for `COc1ccc(NC(=O)c2cc3ccccc3cc2OC)cc1`, 8.57%; that for `CCCNC(=S)N1CCN(C(c2ccccc2)c2ccccc2)CC1`, 9.6%.
For the compound `C=CCNC(=O)C1CCCN(S(=O)(=O)c2ccc(-n3cnnn3)cc2)C1` (centres unmarked), the “hERG current change (%, negative = inhibition) at 1uM” value is -3.3%.
The value for `CCOC(=O)C1=C(C)N=C2SC(C)C(=O)N2C1c1ccccc1` (centres unmarked) was 3.4%; that for `Cc1cc(NC(=O)CCSc2ccc(Cl)cc2)no1` was -3.81%; that for `Cc1cc(C)nc(SCC(=O)Nc2ccc(Br)cn2)n1` was 10.6%.
Turning to `CC1=C(C(=O)Nc2ccc(F)cc2)C(c2cccc(C)c2)n2nc(CCCO)nc2N1` (centres unmarked), the “hERG current change (%, negative = inhibition) at 1uM” value is given as 9.17%.
On to `CCc1ccc(C(=O)C(C)OC(=O)c2nn(C)c(=O)c3ccccc23)cc1` (centres unmarked), for which the “hERG current change (%, negative = inhibition) at 1uM” value came out at 6.2%.
The result for `COc1cccc(NC(=S)NC(=O)c2c(Cl)c(C)nn2C)c1` reads -4.49%.
The result for `CCOC(=O)c1cc(C#N)c(N2CCCNCC2)nc1C(F)(F)F` reads 6.49%.
Take `CC(C)[C@H](NC(=O)CCn1nnc2ccccc2c1=O)C(=O)O`: the “hERG current change (%, negative = inhibition) at 1uM” value is recorded as 17.3%.
The result for `COc1ccc(N2C(=O)CC(Nc3ccc(C)cc3)C2=O)cc1` (centres unmarked) reads 1.81%; that for `O=C(NCC1CCCCC1)C1(CC2CC(c3ccc(Cl)cc3)=NO2)CCNCC1` (centres unmarked), -12.9%.
The result for `Cc1cnn(C2CCN(C)CC2)c1N` reads 13.1%; that for `Cc1ccc(NC(=O)CSc2nn3c(=O)c(C)nnc3s2)cc1Cl`, 3.57%; that for `COc1ccccc1OCCOc1ccc(/C=C2\C(=N)N3N=C(C)SC3=NC2=O)cc1`, 16.9%.
The value for `CN(C)c1nnnn1-c1ccc(Cl)cc1Cl` was 4.61%.
Regarding `C=CCNC(=O)/C(C#N)=C/c1c(N2CCN(c3ccccc3)CC2)nc2c(C)cccn2c1=O`, the “hERG current change (%, negative = inhibition) at 1uM” value was 6.84%.
The value for `Cc1ccc(Nc2nnc(SCC(=O)Nc3cccnc3Cl)s2)cc1C` was 3.22%.
The result for `CNc1nc(SCC(=O)Nc2ccc(Cl)c(Cl)c2)nc(N2CCOCC2)n1` reads 3.02%; that for `O=C(NCCCN1CCCC1=O)c1ccccc1NS(=O)(=O)c1ccc(F)cc1`, 13%.
The value for `Fc1cc(F)cc(NC(=S)N2CCC(c3ccccc3)C2)c1` (centres unmarked) was 13.5%; that for `CCCOc1cccc(NC(=O)OC2CCN(C)CC2)c1.O=C(O)/C=C/C(=O)O` was 1.42%.
As to `Cc1ccc2cc3cc(C(=O)N4CCN(C(=O)c5ccco5)CC4)sc3nc2c1`, the “hERG current change (%, negative = inhibition) at 1uM” value is given as -5.31%.
With `Cc1ccc(S(=O)(=O)CCC(=O)OCC(=O)NCCc2ccc(S(N)(=O)=O)cc2)cc1`, the “hERG current change (%, negative = inhibition) at 1uM” value is reported as 2.28%.
Consider `O=C(COc1cccc(-n2cnnn2)c1)NCCC1=CCCCC1`, for which the “hERG current change (%, negative = inhibition) at 1uM” value turned out to be 6.68%.
In the case of `COc1ccccc1OCc1nnc(SCC(=O)Nc2ccc(N3CCOCC3)cc2)n1C`, the “hERG current change (%, negative = inhibition) at 1uM” value is 15.1%.
The result for `COc1ccc(-c2ocnc2C(=O)NCc2nn(-c3ccccc3)nc2C)cc1` reads 12.6%; that for `N#CC12CCCCC1CC1CCCCC1(C#N)N2CCO` (centres unmarked), 9.07%; that for `Cc1ccc(S(=O)(=O)CC(=O)NC(C)(C)C)cc1`, 20.9%.
On to `CCOc1ccc(-n2c(O)c(/C=N/Nc3nnc(C)c(=O)[nH]3)c3ccccc3c2=O)cc1`, for which the “hERG current change (%, negative = inhibition) at 1uM” value turned out to be 3%.
The result for `N/C(=N\OC(=O)c1ccc(Cl)cc1[N+](=O)[O-])c1cccnc1` reads 7.58%.
Turning to `CCOC(=O)C1=C(C)NC(=O)NC1/C=C\c1ccccc1` (centres unmarked), the “hERG current change (%, negative = inhibition) at 1uM” value was determined as 15%.
The result for `O=C(N/N=C/c1ccc(Br)s1)c1c[nH]c2ccccc12` reads 12.3%; that for `CN(C)N1C(=O)CC(NNC(=O)c2ccncc2)C1=O` (centres unmarked), 6.24%.
